Structures are written as SMILES. Out of some 52,000 compounds screened, about 4,300 (8.3%) were called active. Cut-off read from the data, not from the text of the source: active = survival mostly below about 52% (no sharp cut-off); inactive = mostly above about 56%. The list shows a part of the results.

In the assay the test system is DeltatarO mutant. Kind of assay: growth inhibition of S. aureus wild type versus tarO mutant, primary screen, teichoic acid synthesis inhibitors, RN4220, OD600 (AID 463173). As to conditions: OD600, 18 h, stronger effect = lower value, screened at 18.75 µg/mL (by protocol).
For the compound `CCc1ccc(-c2nn(CC(=O)NC3CCCCC3)c3c2cnc2ccc(OC)cc23)cc1`, the survival is inactive: 98%.

With `COc1ccc(CC(=O)Nc2sc3c(c2C(=O)Nc2c(C)cccc2C)CCCCC3)cc1`, the survival was active: 47%.

On to `COc1cccc(NC(=O)/C(C#N)=C\c2cn(Cc3ccc(Cl)cc3)c3ccccc23)c1`, for which the survival is inactive: 77%.

Take `COC(=O)Cc1ccc2c3ccccc3n(C)c2c1`: the survival was inactive: 100%.

Consider `COc1cc(C2CC(=O)Nc3c2c(=O)nc2c(C)cccn32)cc(OC)c1OC` (configuration not stated), for which the survival is inactive: 56%.

For `Cc1ccc(NC(=O)C(Cc2ccccc2)NS(=O)(=O)c2cccc3nsnc23)c(C)c1` (configuration not stated), the survival is inactive: 125%.

For the compound `CCS(=O)(=O)N1CCN(C(=O)c2ccc(OC)cc2)CC1`, the survival was inactive: 102%.

As to `NNC(=O)CNC(=O)c1cccs1`, the survival is inactive: 79%.

As to `CCOc1ccc(C(=O)N(CC#N)CC#N)cc1`, the survival was inactive: 79%.

In the case of `COc1cccc(Nc2nc(-c3ccccc3)c3cc(C)ccc3n2)c1`, the survival is active: 12%.

Take `Cc1cccc(CNC(=O)c2ccc(Cn3c(=O)c4cccn4c4cccnc43)cc2)c1`: the survival was active: 48%.

Regarding `O=C(CC1N=C2c3ccccc3N=C(SCc3ccccc3F)N2C1=O)NCc1cccs1` (configuration not stated), the survival was inactive: 101%.

Take `CCn1c(=O)n(CC)c2cc(N3CCCCC3)c(NC(=O)Nc3cc(Cl)ccc3OC)cc21`: the survival is inactive: 81%.

Turning to `CC(C)C(=O)Nc1ccc2nc(SCCOc3ccccc3)sc2c1`, the survival is inactive: 94%.

With `CCOC(=O)c1c(C)[nH]c(CCC(=O)Nc2ccccc2C(=O)OC)c1C`, the survival was inactive: 94%.

As to `C=CCNC(=O)c1cccc(Br)c1`, the survival is inactive: 72%.

In the case of `COc1ccc(-n2c(-c3ccco3)nc3c(cnn3-c3ccc(C)cc3)c2=O)cc1`, the survival is inactive: 73%.

With `Cc1ccc(N2CCN(C(=O)c3cn(C)c4ccc(S(=O)(=O)N(C)C5CCCCC5)cc4c3=O)CC2C)cc1` (configuration not stated), the survival is inactive: 91%.

Take `COc1ccc(CCNC(=O)CCS(=O)(=O)c2ccc3c(c2)oc(=O)n3C)cc1OC`: the survival is inactive: 99%.

For `Cc1nn2c(-c3cccc(NC(=O)c4ccc(Cl)cc4)c3)nnc2c2ccccc12`, the survival was inactive: 116%.

Take `CCN1CCC(N(Cc2ccc3c(c2)OCO3)C(=O)Nc2ccc(Br)c(C)c2)CC1`: the survival is inactive: 100%.

Regarding `CCS(=O)(=O)N1CCc2cc(C(=O)Nc3cc(Cl)ccc3C)ccc21`, the survival was inactive: 72%.

Consider `O=C(c1ccc2c(=O)n(CCc3ccccc3)c(=O)[nH]c2c1)N1CCN(c2ccc(Cl)cc2)CC1`, for which the survival is inactive: 65%.

For `CCn1c(C)c(C)c2cc(C(=O)NCCc3ccc(C)cc3)ccc21`, the survival is inactive: 85%.

Regarding `CCOC(=O)/C(C)=C1\NC(C)(C)Cc2ccccc21`, the survival was inactive: 92%.

With `CCOc1ccc(C(=O)N2CCN(Cc3cc(=O)n4nc(-c5ccccc5Cl)sc4n3)CC2)cc1`, the survival is inactive: 85%.

With `O=C(Nc1ccc2nn(-c3ccccc3)nc2c1)c1ccc(-c2cccc(Cl)c2)o1`, the survival is inactive: 105%.

With `CCOc1ccc(NS(=O)(=O)c2ccc(NC(=O)N3CCCC3)cc2)cc1`, the survival was inactive: 101%.

Regarding `O=C(c1cccs1)N1CCCc2cc(NS(=O)(=O)c3ccc(F)cc3)ccc21`, the survival is inactive: 135%.

For the compound `CC(C)Cn1c(/C=C/c2ccc(F)cc2)nc2ccccc21`, the survival was active: -4%.

On to `COCCCNC(=O)CCc1c(C)nc2cc(-c3ccc(Cl)cc3)nn2c1C`, for which the survival was inactive: 110%.

On to `COc1ccccc1NC(=O)C1=C(C)Nc2nc(SCc3cc(C)ccc3C)nn2C1c1ccccc1` (configuration not stated), for which the survival was inactive: 116%.

As to `OC1N(CN2CCN(c3ccccc3F)CC2)c2ccccc2C12OCCCO2` (configuration not stated), the survival is inactive: 99%.

In the case of `CC(=O)N1CCc2cc(CNC(=O)Nc3ccccc3C(F)(F)F)ccc21`, the survival is inactive: 78%.

Take `Cc1cccc(Cn2nnc3c(=O)[nH]c(C4CCCN(C(=O)c5ccc(C(C)(C)C)cc5)C4)nc32)c1` (configuration not stated): the survival was active: 18%.

As for `CCCN1CCCc2cc(CN(CCCN3CCOCC3)C(=O)Nc3ccc(OCC)cc3)ccc21`, the survival was inactive: 72%.

Turning to `COc1ccc2c(CNC3CCC(C)CC3)c(C(=O)O)n(Cc3ccccc3)c2c1` (configuration not stated), the survival was inactive: 74%.

`COc1ccccc1C(=O)NCCc1csc(-c2ccc(C(F)(F)F)cc2)n1`: the survival was inactive: 126%.

As for `CCc1ccc(C2CC(=O)N(c3cccc(C(F)(F)F)c3)C3=C2C(=O)OC3)cc1` (configuration not stated), the survival is active: 57%.

With `CCOCCc1nn2c(=O)cc(COC(=O)c3ccc(NC(=O)c4ccc(F)cc4)cc3)nc2s1`, the survival was active: 32%.

In the case of `Cc1ccc(C)c(NC2=C(c3ccc(C(F)(F)F)cc3)C(=O)c3ccccc32)c1`, the survival was inactive: 65%.

On to `O=C(NCc1ccc2c(c1)OCO2)c1cccnc1`, for which the survival is inactive: 103%.

For `O=C(COCc1cc(-c2ccc3c(c2)OCO3)on1)N1CCN(c2cccc(C(F)(F)F)c2)CC1`, the survival is inactive: 92%.

For the compound `O=C(Nc1ccc2[nH]ncc2c1)/C(=C/c1ccco1)NC(=O)c1ccccc1`, the survival is inactive: 86%.

On to `CCCS(=O)(=O)c1nc(S(=O)(=O)c2ccc(C)cc2)c(NC(C)c2ccccc2)s1` (configuration not stated), for which the survival is inactive: 117%.

For the compound `CN1C(C(=O)NC(C)(C)C)=CC(c2ccc3c(c2)OCO3)=NS1(=O)=O`, the survival is inactive: 86%.

Take `COc1cccc(NS(=O)(=O)c2ccc3[nH]cc(C(=O)NCCc4ccc(C)cc4)c(=O)c3c2)c1`: the survival is inactive: 102%.

Consider `Cc1cc(C)c2oc(C(=O)Nc3nc4ccc(Cl)cc4s3)cc(=O)c2c1`, for which the survival was inactive: 61%.

For the compound `Cc1ccc(-n2ccnc(NCc3cccs3)c2=O)cc1C`, the survival is inactive: 126%.

On to `Cc1cccc(Cn2c(SCc3ccc(C(=O)NCc4ccccc4F)cc3)nc3cccnc32)c1`, for which the survival is inactive: 98%.

`CCOc1ccccc1CNC(=O)C1CCN(Cc2cc3ccccc3n2Cc2ccccc2)CC1`: the survival was inactive: 86%.

Take `Cc1ccc(-c2cn3nc(N4CCC(C(=O)Nc5ccccc5C)CC4)sc3n2)cc1`: the survival is inactive: 80%.

As to `CC(C(=O)NCc1ccco1)N(C(=O)c1ccc(Cl)nc1)C1CCCCC1` (configuration not stated), the survival was inactive: 116%.

In the case of `Cc1ccc2oc(C(=O)Nc3ccc(S(=O)(=O)Nc4ncccn4)cc3)cc(=O)c2c1`, the survival was inactive: 70%.

As to `NCC(O)CN1CCN(Cc2ccccc2)CC1` (configuration not stated), the survival is inactive: 92%.

`c1ccc2c(c1)nc1n2CCN1CCNC1CCCCC1`: the survival was inactive: 104%.

As for `CCNC(=S)NCc1ccc2c(c1)OCO2`, the survival is inactive: 85%.

These data come from PubChem BioAssay AID463173 (ICCB-Longwood Screening Facility, Harvard Medical School, 2010).
